# The whole screen tested about 310,000 compounds, of which about 2,200 (0.71%) showed an effect of 50% or more. Effects have a minus sign here. The list shows a part of the results.
# Target: human ether-à-go-go-related gene (hERG) potassium channel (human, UniProt Q12809)
# Assay: primary screen, population patch clamp on CHO cells stably expressing hERG
# human ether-à-go-go-related gene (hERG) potassium channel, sequence (Q12809 whole entry, looked up): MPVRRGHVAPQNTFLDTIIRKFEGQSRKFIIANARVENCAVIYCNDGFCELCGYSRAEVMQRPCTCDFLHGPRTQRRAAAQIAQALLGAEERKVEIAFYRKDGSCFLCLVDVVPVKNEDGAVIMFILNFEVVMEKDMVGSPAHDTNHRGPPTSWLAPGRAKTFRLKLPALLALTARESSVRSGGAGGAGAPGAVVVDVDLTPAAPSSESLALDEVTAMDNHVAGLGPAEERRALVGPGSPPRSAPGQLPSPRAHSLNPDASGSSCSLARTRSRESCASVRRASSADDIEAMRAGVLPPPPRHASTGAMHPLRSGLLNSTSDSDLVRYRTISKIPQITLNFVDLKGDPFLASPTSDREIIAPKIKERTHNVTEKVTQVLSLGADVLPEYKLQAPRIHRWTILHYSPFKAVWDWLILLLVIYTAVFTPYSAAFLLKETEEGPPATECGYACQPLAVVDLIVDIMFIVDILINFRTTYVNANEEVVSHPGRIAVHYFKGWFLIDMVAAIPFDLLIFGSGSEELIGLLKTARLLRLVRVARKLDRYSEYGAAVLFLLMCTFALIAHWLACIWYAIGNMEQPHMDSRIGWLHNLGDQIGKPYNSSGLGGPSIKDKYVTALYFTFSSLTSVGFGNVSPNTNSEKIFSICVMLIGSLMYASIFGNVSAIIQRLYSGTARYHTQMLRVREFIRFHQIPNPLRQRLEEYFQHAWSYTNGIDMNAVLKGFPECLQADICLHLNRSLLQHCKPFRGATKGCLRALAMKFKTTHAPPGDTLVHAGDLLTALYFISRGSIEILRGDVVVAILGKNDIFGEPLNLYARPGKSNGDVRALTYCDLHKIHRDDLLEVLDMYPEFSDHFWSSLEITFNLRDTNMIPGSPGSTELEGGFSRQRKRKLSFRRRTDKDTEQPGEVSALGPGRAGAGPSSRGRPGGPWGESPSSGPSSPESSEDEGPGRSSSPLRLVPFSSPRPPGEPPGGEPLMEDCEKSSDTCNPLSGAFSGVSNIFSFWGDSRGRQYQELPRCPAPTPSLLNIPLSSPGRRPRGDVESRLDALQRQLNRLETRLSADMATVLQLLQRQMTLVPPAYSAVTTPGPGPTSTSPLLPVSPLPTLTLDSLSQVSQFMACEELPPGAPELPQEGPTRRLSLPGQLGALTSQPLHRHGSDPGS
row,SMILES,"hERG current change (%, negative = inhibition) at 1uM [%]"
1,CSc1nsc(SCC(=O)Nc2nc3ccccc3s2)n1,5.45
2,CCN(CC(=O)Nc1ccc(C(C)=O)cc1)CC(=O)Nc1cccc(OC)c1,-7.67
3,CC(=O)Nc1ccc(S(=O)(=O)NCC2CCC(C(=O)N3CCCCCC3)CC2)cc1 (stereo not drawn),10.1
4,COc1ccc(-c2nnc(NC(=O)c3ccc([N+](=O)[O-])o3)o2)c(OC)c1,15.7
5,CCOC(=O)C1C(=O)NC(C)C1c1ccccc1 (stereo not drawn),4.56
6,O=S(=O)(c1ccc(S(=O)(=O)N2CCN3CCCC3C2)cc1)N1CCCC1 (stereo not drawn),10.5
7,CCCOc1cc(C)nc(-c2ccccc2O)n1,16
8,Cc1cccc(C(=O)NC(=S)Nc2ccc(S(=O)(=O)N(C)c3ccccc3)cc2)c1,7.62
9,CCC(C)[C@H](NC(=O)N1CC(=O)Nc2ccccc21)C(=O)NC(C)CCc1ccccc1 (stereo partly drawn),6.37
10,COCCCNc1nc2c(c(=O)[nH]c(=O)n2C)n1CCCc1ccccc1,15.3
11,COc1ccc(Nc2nnc(SCc3cn4c(C)cccc4n3)s2)cc1,6.12
12,COc1cccc(SCc2noc(C(=O)NC(C)C)c2C(=O)NC(C)C)c1,15.1
13,O=C(O)c1ccc(S(=O)(=O)NCc2ccc3c(c2)OCO3)cc1,11.3
14,CC(C)c1nc2cc(C(=O)NC(C)c3cnn(C)c3)ccc2o1 (stereo not drawn),6.24
15,Cc1cccc(C)c1NC(=O)CNC(=O)C1CCCN(C(=O)c2ccc(Cl)cc2)C1 (stereo not drawn),14
16,CCc1ccc(N(CC(=O)NC(C)(C)C)C(=O)CNC(=O)c2cccs2)cc1,6.98
17,CCN1C2OC3OC4C(OC3OC2N(CC)S1(=O)=O)N(CC)S(=O)(=O)N4CC (stereo not drawn),10.2
18,O=C(O)CCn1c(=S)n(CCC(=O)O)c2ccccc21,6.37
19,CCC(C)NC(=O)CSc1nc2cc(S(=O)(=O)N3CCOCC3)ccc2n1CC (stereo not drawn),12.4
20,CCCCOC(=O)C1CCC[C@@H](C)N1.Cl (stereo partly drawn),2.38
21,Cc1[nH]c(=S)sc1Cc1ccc(F)cc1,11.4
22,COc1cccc(/C=N/N2CCN(c3ccc(Cl)cc3)CC2)c1OC,11.7
23,CCN(CC)C(=O)CSc1nc2sc3c(c2c(=O)n1CCOC)CCC3,6.09

row,SMILES,"hERG current change (%, negative = inhibition) at 1uM [%]"
1,Cc1nccn1CCC(=O)Nc1ccc(Cl)cc1,2.98
2,CN(C)CCCNC(=O)N1c2ccccc2Sc2ccccc21,11.1
3,O=C(NCc1ccc2c(c1)OCO2)C12CC3CC(CC(C3)C1)C2,-0.706
4,CS(=O)(=O)N(CC(=O)Nc1ccc(CC#N)cc1)c1ccc(C23CC4CC(CC(C4)C2)C3)cc1,5.2
5,Cc1ccc(N2CC(C(=O)Nc3nnc(SCCN4CCOCC4)s3)CC2=O)cc1C (stereo not drawn),13.1
6,CN(C)Cc1nc2ccccc2c(=O)n1Cc1nc(-c2cccc([N+](=O)[O-])c2)cs1,-4.23
7,CCOC(=O)N1CCN(C(=O)c2ccc3nc(N4CCCCC4)sc3c2)CC1,8.47
8,O=C(Cc1cccs1)NNC(=O)c1ccccc1Cl,4.95
9,CCOc1cc(C2C(C(=O)c3ccco3)=C(O)C(=O)N2CCc2ccccc2)ccc1O (stereo not drawn),8.56
10,Nc1nc(F)nc2c1ncn2[C@@H]1O[C@H](CO)[C@@H](O)[C@H]1O,20.3
11,CCOC(=O)NN1C(=O)c2ccccc2NC1c1ccc(N(C)C)cc1 (stereo not drawn),7.21
12,CC(/C=N/N1CCN(c2ccc(C)cc2)CC1)=C\c1ccccc1,6.8
13,O=C(NCc1ccccc1Cl)c1cnn2cccnc12,5.26
14,COc1ccc(CCC(=O)NCCOc2ccc(Cl)cc2)cc1,0.875
15,O=C(CCCc1nc(-c2ccccc2Cl)no1)N1CCOCC1,12.3
16,Cc1ccc(S(=O)(=O)ON2C(=O)c3ccccc3C2=O)c(C)c1,-2.72
17,COc1ccc(Cc2nc3ccccc3n2CC(=O)N/N=C/c2ccc(O)cc2)cc1OC,-3.24
18,Cc1cc(OCC(=O)NN2C(=O)c3ccccc3C2=O)ccc1Cl,9.91
19,CCc1noc(C)c1C(=O)N1CCN(S(=O)(=O)c2cc(C)ccc2C)CC1,5.4
20,COc1ccc(C(C(=O)NCc2ccccc2)N(Cc2cccs2)C(=O)c2cnccn2)cc1 (stereo not drawn),4.83
21,CC1CC(C)CN(CCCNS(=O)(=O)c2ccc3c(c2)oc(=O)n3C)C1 (stereo not drawn),-2.42
22,COC(=O)C1C(=O)C2=C(CC1C)NC(=O)CC2c1cccc(C)c1 (stereo not drawn),-4.59

# Source: article PMC4336329 (PLoS ONE, 2015)
